Laboratory results published in PubChem BioAssay AID1508623 (National Center for Advancing Translational Sciences (NCATS), 2021).
Out of some 48,000 compounds screened, about 450 (0.94%) were called active. Not shown: some 19% with an inconclusive outcome. Calls follow the shape of the dose curve; as a rule, active = well fitted inhibition curve with a large enough effect; inconclusive = small, poorly fitted or top-dose-only effect; inactive = no such curve, though single readings can be large or run the other way. The list shows a part of the results.

assay: Primary qHTS for Identification of Small Molecule Inhibitors of Huntingtin Promoter Activity; conditions: HEK293 HTT promoter firefly luciferase reporter (activity 0% = vehicle and -100% = no light), 24 h; series mostly up to 57.5 µM; activity change, negative = inhibition: at the top concentration; also: nearly all actives have a fitted effect of over 50% in size
Procedure, shortened: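 HEK293 Fluc reporter, 2,500 cells/well, 24 h pre-culture; cpds up to 57.5 uM final, 24 h 37 degrees C; Dual-Glo, 10 min RT; normalized vehicle = 0%, zero RLU = -100%.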
Potency is read from the fitted curve at half-maximal effect.

Row | SMILES | activity change, negative = inhibition | Potency
1 | COc1ccc(NC(=O)NC2COc3ccccc3C2)cc1Cl (stereo not given) | inactive: 23.2% | –
2 | Cc1ccc(CN2C(=O)c3ccccc3CC2(C)C(=O)NC2CCCCC2)cc1 (stereo not given) | inactive: -16.8% | –
3 | Cc1cccc(N2CCN(C(=O)c3noc4c3COc3ccc(C)cc3-4)CC2C)c1 (stereo not given) | inactive: -9.09% | –
4 | CCOc1ccccc1C(=O)NC1(C(F)(F)F)C(=O)Nc2c1c(=O)[nH]c(=O)n2-c1ccc(F)cc1 (stereo not given) | inactive: -10.5% | –
5 | CSc1ccc(CCNC(=O)CCc2c(C)nc3ncnn3c2C)cc1 | inactive: -11% | –
6 | COc1ccccc1N1CCN(CCN(C(=O)C2CCCCC2)c2ccccn2)CC1 | inactive: -11.1% | –
7 | CN1C(=O)CC(c2ccccc2)C1=O (stereo not given) | inactive: -7.2% | –
8 | OC[C@H]1O[C@@H](Oc2cc(O)cc(C=Cc3ccc(O)cc3)c2)[C@H](O)[C@@H](O)[C@H]1O | inactive: 6.01% | –
9 | Cc1ccc(C(=O)Nc2cccc3cccnc23)cc1Cl | inactive: 58.2% | –
10 | COC(=O)c1c(-c2cccs2)csc1NC(=O)COc1ccc(C)cc1 | inactive: -12.2% | –
11 | CN1CCN(c2ncc3c(n2)CCN(Cc2ccc(Br)s2)C3)CC1 | inactive: -16.7% | –
12 | Cc1cccn2c(=O)c(C(=O)NCc3cccc(F)c3)cnc12 | inactive: 4.02% | –
13 | Cc1ccc(Cl)cc1Nc1nn2c(=O)c3ccc(C(=O)NCc4ccc(F)cc4)cc3nc2s1 | inactive: -13.7% | –
14 | CCCOc1ccc(-c2nc(SCC(=O)c3ccc(Cl)cc3)n[nH]2)cc1 | inactive: -6.21% | –
15 | CC(=O)c1ccc(N2CCN(C(=O)C3CCN(S(=O)(=O)c4cn(C)cn4)CC3)CC2)cc1 | inactive: -0.501% | –
16 | Cn1c(=O)c2sccc2n2c(CCC(=O)NCc3ccc(Cl)cc3)nnc12 | inactive: -3% | –
17 | CN(C)CCN(Cc1ccccc1)c1ccccn1 | inactive: 8.65% | –
18 | COc1ccc(NC(=O)c2oc3ccccc3c2NC(=O)Cc2coc3c(C)c(C)ccc23)cc1 | inactive: -6.86% | –
19 | COc1ccc(-c2nc3cc(NC(=O)CSc4ccc(C)cc4)ccc3o2)cc1 | inactive: 12.6% | –
20 | Fc1ccc(Cl)cc1-c1nc(Nc2ccncc2)c2nccnc2n1 | inactive: -0.449% | –
21 | CCc1ccc(NC(=O)Cn2ccn(-c3ccc(C)c(C)c3)c(=O)c2=O)cc1 | inactive: 22.4% | –
22 | Cc1ccc(S(=O)(=O)c2nc(S(=O)(=O)c3ccccc3)sc2NCCCOC(C)C)cc1 | inactive: -26% | –
23 | CCOc1ccc(NC(=O)/C(C#N)=C\c2ccc(-c3ccc(Cl)cc3)o2)cc1 | inactive: -3.9% | –
24 | Cc1c(Cl)cccc1NC(=O)CCS(=O)(=O)c1ccc2c(c1)CC(=O)N2C | inactive: -1.83% | –

Row | SMILES | activity change, negative = inhibition | Potency
25 | O=C(CSc1n[nH]c(-c2ccc(F)cc2)n1)NCCc1ccccc1 | inactive: -7.04% | –
26 | CCN(CC)CCNC(=O)c1c2c(nc3ccccc13)C(=O)N(C1CCCCC1)C2 | inactive: -8.07% | –
27 | Cc1ccc(S(=O)(=O)NCCc2cn3ccsc3n2)c(C)c1 | inactive: -4.43% | –
28 | COc1cccc(NC(=O)Cn2cc(C(=O)c3ccc(C)cc3)c(=O)c3cc(OC)ccc32)c1 | inactive: -17.9% | –
29 | Cc1ccccc1NC(=O)Cn1c(=O)n(Cc2ccc3c(c2)OCO3)c(=O)c2ccccc21 | inactive: -15.8% | –
30 | CCc1nc2nc(C)cc(Nc3cccc(C)c3C)n2n1 | inactive: -26.7% | –
31 | Cc1cc2ccccc2n1CCNC(=O)c1ccc(Br)cc1 | inactive: -18% | –
32 | COc1ccc(CNC(=O)CCc2c(C)c3cc4c(C)c(C)oc4cc3oc2=O)cc1OC | inactive: -3.31% | –
33 | CC(C)c1ccc(OCC(=O)N(Cc2cccs2)C2CCS(=O)(=O)C2)cc1 (stereo not given) | inactive: -23.2% | –
34 | CCOc1cc(Cl)c(S(=O)(=O)n2ccnc2)cc1Cl | inactive: 2.41% | –
35 | Cc1nnc(N2CCC(C(=O)NCCC(C)C)CC2)c2nn(-c3ccc(Cl)cc3)c(C)c12 | inactive: -12.8% | –
36 | CCC(C(=O)N1CCN(c2ccccc2)CC1)n1c(C)c2cnn(-c3ccccc3)c(=O)c2c1C (stereo not given) | inactive: -22.9% | –
37 | O=C(NC1CCCC1)c1ccc2c(=O)n(Cc3ccccc3)c(SCc3cccc(F)c3)nc2c1 | inactive: -1.48% | –
38 | CCN(CC)c1ccc(NC(=O)CCCN2C(=O)C(c3ccccc3)Oc3cccnc32)c(C)c1 (stereo not given) | inactive: -8.68% | –
39 | COC(=O)c1ccc(NC(=O)CN2C(=O)CC(c3ccccc3)Sc3ccccc32)cc1 (stereo not given) | inactive: 12.9% | –
40 | Cc1cc(C)n(C(C)CC(=O)Nc2ccc(C)c(N(C)C)c2)n1 (stereo not given) | inactive: 2.73% | –
41 | C=C(C)CSc1nc(-c2ccccc2)cc(-c2ccc(OC)cc2)c1C#N | inactive: -20.3% | –
42 | Cc1ccc(N2CC(C(=O)Nc3ccc(N(C)C)cc3)CC2=O)cc1Cl (stereo not given) | inactive: 3.91% | –
43 | Fc1ccccc1N1CCN(c2nc3ccccc3c3nc(-c4ccccc4)nn23)CC1 | inactive: -5.14% | –
44 | CSc1ccc(-c2nnc(NC(=O)c3ccc4c(c3)OCCO4)o2)cc1 | inactive: -2.65% | –
45 | CC(=O)Nc1cccc(-n2cc3c(c2-c2ccccc2Cl)c(=O)n(C)c(=O)n3C)c1 | inactive: 0.542% | –
46 | O=C(CCn1ccc2cc(S(=O)(=O)N3CCCC3)ccc21)NCc1ccccc1Br | inactive: -22.5% | –
47 | COc1ccc(C)cc1Nc1cc(C)nc(C)n1 | inactive: 49.9% | –
48 | O=C(CN1C(=O)c2cccnc2Oc2ccc(Cl)cc21)Nc1cccc(C(F)(F)F)c1 | inactive: -22.7% | –

Row | SMILES | activity change, negative = inhibition | Potency
49 | CC(C)Oc1ccc(C(=O)Nc2c(C(=O)Nc3cccc(F)c3)oc3ccccc23)cc1 | inactive: 4.57% | –
50 | COc1ccc(-c2cc(C(F)(F)F)nc(SCC(=O)NCC(C)C)n2)cc1OC | inactive: -6.47% | –
51 | Cc1ccn2c(=O)cc(COc3cccc(NC(=O)Nc4cccc(Cl)c4C)c3)nc2c1 | inactive: -8.36% | –
52 | COc1ccccc1NC(=O)C1=C(C)Nc2nc3ccccc3n2C1c1cccc(OC)c1OC (stereo not given) | inactive: -4.69% | –
53 | O=C(NCCCN1CCOCC1)c1ccc2c(c1)N(Cc1cccc(Cl)c1)C(=O)c1ccccc1S2 | inactive: -25.3% | –
54 | O=C(Cn1cc(S(=O)(=O)c2ccccc2)c(=O)c2cc(Cl)ccc21)Nc1ccc2c(c1)OCO2 | inactive: -16.1% | –
55 | COc1ccc(NC(C)=O)cc1NC(=O)CN1CCN(c2ccc(F)cc2)CC1 | inactive: -21.3% | –
56 | CCOc1cc(C(=O)NCC(c2ccc(N(C)C)cc2)N2CCOCC2)cc(OCC)c1OCC (stereo not given) | inactive: -14.6% | –
57 | Cc1ccc(-c2cn3c(n2)sc2cc(C(=O)NCCCc4ccccc4)ccc23)c(C)c1 | inactive: -19.9% | –
58 | CCCCN(CCCNC(=O)c1cc(Nc2ccc(OC)c(OC)c2)nc2ccccc12)c1ccccc1 | inactive: 15.3% | –
59 | CC1CCCN(S(=O)(=O)c2ccc3c(c2)c(=O)nc2ccccn23)C1 (stereo not given) | inactive: -21.7% | –
60 | CC(=O)O[C@@]12CO[C@@H]1C[C@H](O)[C@@]1(C)C(=O)[C@H](O)C3=C(C)[C@@H](OC(=O)[C@H](O)[C@@H](NC(=O)OC(C)(C)C)c4ccccc4)C[C@@](O)([C@@H](OC(=O)c4ccccc4)[C@H]21)C3(C)C | inactive: -23.2% | –
61 | Cc1ccc2oc(=O)n(CCCOc3ccccc3Cl)c2c1 | inactive: 64.1% | –
62 | Cc1cc(C)c(S(=O)(=O)NCC(c2ccc(N(C)C)cc2)N2CCOCC2)c(C)c1 (stereo not given) | inactive: -12.9% | –
63 | COc1ccccc1-c1noc(-c2ccc(NCC3CCCO3)c([N+](=O)[O-])c2)n1 (stereo not given) | inactive: 39.7% | –
64 | CC(CCc1ccccc1)NC(=O)Cn1c(=O)nc(-c2ccccc2)c2ccccc21 (stereo not given) | inactive: 4.2% | –
65 | CCOC(=O)c1cnc2c(C)c(Cl)ccc2c1Nc1ccc(N2CCOCC2)cc1 | inactive: -7.4% | –
66 | Cc1ccccc1Nc1c(-c2cccnc2)nc2ccc(Cl)cn12 | inactive: -27.1% | –
67 | CCCCN(C)CCNC(=O)CN1C(=O)CSc2ccc(S(=O)(=O)N3CCOCC3)cc21 | inactive: 4.9% | –
68 | CCCN1CCN(CC2=C(C(=O)OCC)C(c3ccc(OC(C)C)cc3)NC(=O)N2)CC1 (stereo not given) | inactive: -0.0099% | –
69 | CCn1c(=O)c(=O)n(CC)c2cc(N3CCCCC3)c(NC(=O)c3ccccc3OC)cc21 | inactive: -1.46% | –
70 | CCOc1ccc(-c2nc(CSCC(=O)NCCc3ccc(OCC)c(OCC)c3)c(C)o2)cc1 | – | active: 14.1 µM
71 | COc1ccccc1-c1c(C)nn2c(N3CCN(c4ccccc4)CC3)cc(C)nc12 | inactive: -13.9% | –
72 | COc1ccc(OC)c(CNC(=O)CN2N=C(c3ccc(Cl)cc3)CCC2=O)c1 | inactive: -8.25% | –

Row | SMILES | activity change, negative = inhibition | Potency
73 | CCC(C)NC(=O)CSc1c2c(nc3cc(Cl)ccc13)CCCC2 (stereo not given) | inactive: 0.282% | –
74 | CCCOC1(C(F)(F)F)NC(=O)N(c2cccc(Cl)c2)C1=O (stereo not given) | inactive: -13.8% | –
75 | C=Cc1ccc(Cn2c(C(=O)O)c(CNC3CCCCC3)c3ccc(OC)cc32)cc1 | inactive: -10.4% | –
76 | COc1cccc(CNC(=O)C(=O)NCC(c2ccc3c(c2)OCO3)N2CCOCC2)c1 (stereo not given) | inactive: -24.4% | –
77 | CCOc1ccc(NC(=O)CSc2nnc(CNC(=O)C34CC5CC(CC(C5)C3)C4)n2CC)cc1 | inactive: -26.8% | –
78 | CCOC(=O)c1ccccc1NC(=O)Nc1cc2c(cc1N1CCCC1)n(C)c(=O)n2C | inactive: -17.7% | –
79 | Cc1cc2oc(C(=O)Nc3cccc(-c4nc5ccccc5o4)c3)c(C)c2cc1C | inactive: 2.79% | –
80 | COc1ccc(-n2nc3cc(C)c(NC(=O)Cc4ccc(Cl)cc4)cc3n2)cc1 | inactive: 6.9% | –
81 | O=C(CSc1nc(=O)n(Cc2ccncc2)c2c1CCC2)Nc1ccc(F)cc1F | inactive: -4.53% | –
82 | CCCN1CN=C(NS(=O)(=O)c2ccc(NC(C)=O)cc2)NC1 | inactive: -17.1% | –
83 | CC(Oc1ccccc1)C(=O)Nc1ccccc1C(=O)OCc1cc(=O)n2nc(C(C)C)sc2n1 (stereo not given) | inactive: -6.92% | –
84 | CCc1ccc(NC(=O)CSc2nc(-c3cccc(OC)c3)nc3c2Cc2c(CO)cnc(C)c2O3)cc1 | inactive: -13.2% | –
85 | COc1cc(C(=O)N(Cc2ccc(N(C)C)cc2)CC2CCCO2)cc(OC)c1OC (stereo not given) | inactive: -0.973% | –
86 | Cc1c(C(=O)N(C)C)sc2c1c(=O)n(-c1ccc(Cl)c(Cl)c1)c(=O)n2CC(=O)N1CCCCC1C (stereo not given) | inactive: -4.41% | –
87 | CCCC12CN3CC(CCC)(CN(C1)C3c1ccc(OC(C)C)cc1)C2=O (stereo not given) | inactive: -17.3% | –
88 | COc1cccc(Cn2c(C)c(CNC3CCCCC3)c(C(=O)O)c2C)c1 | inactive: 1.91% | –
89 | COc1ccc(-c2noc(-c3ccc(N4CCN(c5ccccc5OC)CC4)c([N+](=O)[O-])c3)n2)cc1 | inactive: -6.97% | –
90 | COc1ccc(N2CCN(C(=O)CN3C(=O)COc4ccc(S(=O)(=O)N5CCC(C)CC5)cc43)CC2)cc1 | inactive: -24.6% | –
91 | COc1ccc(N2CC(NC(=O)C3CCCCC3)CC2=O)cc1OC (stereo not given) | inactive: -8.9% | –
92 | O=C(c1cnc2c(c1)COc1ccc(Cl)cc1-2)c1ccccc1O | inactive: -4.91% | –
93 | CCOc1ccc(NC(=O)CCCOc2cc(=O)n(C)c3ccccc23)cc1 | inactive: -5.38% | –
94 | Clc1ccccc1CSc1nnc(C2CCNCC2)o1 | inactive: -8.65% | –
95 | Cc1ccc2nc(-c3ccc(C)o3)c(Nc3ccc4c(c3)OCCO4)n2c1 | inactive: 34.2% | –
